Data taken from patent US11471508B2, “HMGB1 antagonist treatment of diabetic peripheral neuropathy” (THE FEINSTEIN INSTITUTES FOR MEDICAL RESEARCH, priority 2019, dated 2022).

Key:
[1] = test system: influenza virus A/PR/8/34 (PR8); conditions: daily for five days beginning two days after influenza infection; cited from earlier work
[2] = test system: influenza virus A/PR/8/34 (PR8); assay: Influenza infection lethality model; format: in vivo; conditions: 100 ug/mouse IP for 5 consecutive days from day 2; 14 days

| Compound | reduction of mortality [1] | clinical scores of influenza-infected mice [2] | survival of influenza-infected mice [2] |
| --- | --- | --- | --- |
| NC(=O)[C@H](CCC(=O)O)NC(=O)[C@H](CO)NC(=O)[C@H](CO)NC(=O)[C@@H](N)Cc1ccccc1 [P5779] | approximately 9 fold | – | – |
| NC(=O)N(CCC(=O)O)NC(=O)[C@H](CO)NC(=O)[C@H](CO)NC(=O)N(N)Cc1ccccc1 [K883] | – | lowered clinical scores | significant survival |
